# Publication PMC12040169 (PLOS Biology, 2025)
# Some of the results follow.
# System: T1, C. trachomatis L2/434/Bu expressing GFP (CTL2-GFP)
# T1 construct: L2/434/Bu GFP intracellular growth in HeLa cells
# Parameters: species or system HeLa; C. trachomatis total inclusion area by high-content imaging, normalised to DMSO
# Settings: total inclusion area; 28.5 h, 10 µM; inhibitor
# Method in brief: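 After bulk GFP and resorufin fluorescence reads, cells were fixed, stained with Hoechst and imaged by high-content microscopy. Inclusion area and number (GFP) stood in for chlamydial growth, nuclei count (Hoechst) for host cell viability. MICs were derived as for the bulk readout.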
row,Structure (SMILES),% of control remaining
1,COC(=O)COc1ccc(NC(=O)c2ccc([N+](=O)[O-])c(C)c2)cc1 [CBK268338],123.453
2,Cc1nn(Cc2ccccc2)c(C)c1NC(=O)CSc1nc2sc3c(c2c(=O)n1C)CCC3 [CBK266069],81.1657
3,O=C(c1c(F)cccc1F)N1CCC(O)(c2cccnc2F)CC1 [CBK284359],46.7407
4,O=C(Cc1cc(F)c(F)c(F)c1)NCCc1c[nH]c2ccc(Cl)cc12 [CBK159768],81.6894
5,O=C(Nc1ccc([C@@H](O)[C@H]2COCC(=O)N2Cc2ccccn2)cc1)c1cccs1 [CBK289700],91.5282
6,O=C(CC1CCCC1)N1CCCC(c2nnc(-c3cccs3)o2)C1 (centres unmarked) [CBK284631],105.078
7,CCC(CC)C(=O)N(C)c1c(C)nc2ccc(C(=O)N(C)CCN(C)C)cn12 [CBK146491],100.349
8,Cc1nn(C(C)CC(=O)O)c(C)c1Br (centres unmarked) [CBK269138],95.2381
9,CCN(CC)C(=O)CCCc1[nH]nc(O)c1Cc1c(Cl)cccc1Cl [CBK081524],91.3817
10,CCCCC(CC)C(=O)N1CCN(c2ccc(OC)cc2)CC1 (centres unmarked) [CBK091414],91.0094
11,Cn1ccc(C2CCCCCN2S(=O)(=O)c2ccc3[nH]c(=O)[nH]c(=O)c3c2)n1 (centres unmarked) [CBK286407],54.7439
12,N#Cc1ccc(Cn2ccnc(N3CCC(Sc4ccccc4)CC3)c2=O)cc1 [CBK153653],84.062
13,O=C(O)Cn1nnc(-c2ccc(OCc3cccc(C(F)(F)F)c3)cc2)n1 [CBK267034],130.416
14,CC(C)Cc1nc(Cn2cnc3c(cnn3C)c2=O)no1 [CBK306256],66.0819
15,COc1ccc2cc(C#N)c(SCC(=O)Nc3ccc(F)cc3)nc2c1 [CBK068765],105.847
16,COc1cc(C(=O)NC/C=N/O)cc(OC)c1OC [CBK015662],63.15
17,O=C(c1ccsc1NS(=O)(=O)Cc1ccccc1[N+](=O)[O-])N1CCOCC1 [CBK042294],101.558
18,O=c1[nH]c(CSc2nnc(CCCOc3ccc(Cl)cc3Cl)o2)nc2ccccc12 [CBK268861],88.7783
19,CC(C)(C)c1cc(C(=O)Cn2c(=N)n(Cc3ccccc3)c3ccccc32)cc(C(C)(C)C)c1O [CBK262480B],66.9265
20,CC1CCN(C(C)Cn2cncc2-c2cnn(C)c2)CC1 (centres unmarked) [CBK281703],113.55
21,CC(C)(C)OC(=O)N1CCc2[nH]nc(Nc3ccccc3)c2C1 [CBK281541],98.1596

row,Structure (SMILES),% of control remaining
1,Cc1ccc(NC(=O)CC2SC(NC3CCCCC3)=NC2=O)c(C)c1 (centres unmarked) [CBK059500],48.0024
2,Nc1ccccc1Sc1nccc(C(F)(F)F)n1 [CBK006263],65.0031
3,COc1ccccc1-c1cnc2[nH]c(=O)n([C@@H](C)c3ccccc3)c2n1 [CBK064717],91.9508
4,O=C(CN1CCOCC1)c1ccc(O)o1 [CBK019286],76.4232
5,CN(C)CCN1CCN(c2nc(-c3cccc4cccnc34)cnc2N)CC1 [CBK063464],110.977
6,Cc1cccn2c(=O)cc(CN3CCC(n4ccnc4)CC3)nc12 [CBK305519],61.25
7,Cc1ccc(S(=O)(=O)NCCCN2CCOCC2)cc1C [CBK262934],108.408
8,CC1CN(c2cc(CO)c(F)cn2)CC2(CCOC2C)O1 (centres unmarked) [CBK304754],56.9874
9,CC(C)Nc1nc2cc(Cl)c(Cl)cc2nc1OCCN(C)C [CBK113419],84.4978
10,O=C(COc1nc2ccccc2s1)N1N=CCC1c1ccccc1 (centres unmarked) [CBK270188],44.1739
11,CC1(C)NC(=O)N(CC(O)CN(C2CCCCC2)C2CCCCC2)C1=O (centres unmarked) [CBK264578],92.3338
12,CCOC(=O)CSc1nnc(-c2ccncc2)n1-c1ccccc1 [CBK263350],114.406
13,O=C(c1ccc(S(=O)(=O)N2CCCC2)cc1)N1CCN(C/C=C/c2ccccc2)CC1 [CBK263587],75.129
14,CC(=O)Nc1ccc(/C=N/c2ccccc2)cc1 [CBK012258],82.1279
15,Cc1ccc([N+](=O)[O-])c(OCCNCCN(C)C)c1 [CBK267822C],80.7452
16,COc1nccc(N2CCC3(CC(=O)NC3=O)C2)c1C#N (centres unmarked) [CBK307246],45.6064
17,COc1nccnc1-c1cnn(Cc2ccccc2)c1 [CBK107090],83.9991
18,CCc1cc(C(=O)NC(c2ccncc2)c2cccs2)n(C)n1 (centres unmarked) [CBK281482],93.1581
19,O/N=C(\Cn1cncn1)c1ccc(Cl)cc1Cl [CBK261085],102.906
20,CCN(CC)CCC(C(=O)c1ccccc1)S(C)(=O)=O (centres unmarked) [CBK022802],84.5958
